B1: GPR68, Q15743 (parent)
chain: MGNITADNSSMSCTIDHTIHQTLAPVVYVTVLVVGFPANCLSLYFGYLQIKARNELGVYLCNLTVADLFYICSLPFWLQYVLQHDNWSHGDLSCQVCGILLYENIYISVGFLCCISVDRYLAVAHPFRFHQFRTLKAAVGVSVVIWAKELLTSIYFLMHEEVIEDENQHRVCFEHYPIQAWQRAINYYRFLVGFLFPICLLLASYQGILRAVRRSHGTQKSRKDQIQRLVLSTVVIFLACFLPYHVLLLVRSVWEASCDFAKGVFNAYHFSLLLTSFNCVADPVLYCFVSETTHRDLARLRGACLAFLTCSRTGRAREAYPLGAPEASGKSGAQGEEPELLTKLHPAFQTPNSPGSGGFPTGRLA

Variants of B1 are the subject of data set [1]. Kind of data set: cAMP reporter score (Enrich2 score, wild type = 0); higher = more signal; HEK293T, FACS bins.
Data set [2] covers variants of B1. Kind of data set: surface expression score (Enrich2 score, wild type = 0); higher = more signal; HEK293T, FACS bins.

The least precise scores are not listed. Not listed are two conditions whose scores span a narrow range. Names with del lack the residues named; names with ins carry added residues between the positions named. For some of these results: How much ogerin was present is not stated here.

MGNITADNSSMSCTIDHTIHQTLAPVVYVTVLVVGFPANCLSLYFGYLQIKARNELGVYLCNLTVADLFYICSLPFWLQYVLQHDNWSHGDLSCQVCGILLYENIYISVGFLCCISVDRYLAVAHPFRFHQFRTLKAAVGVSVVIWAKELLTSIYFLMHEEVIEDENQHRVCFEHYPIQAWQRAINYYRFLVGFLFPICDLLASYQGILRAVRRSHGTQKSRKDQIQRLVLSTVVIFLACFLPYHVLLLVRSVWEASCDFAKGVFNAYHFSLLLTSFNCVADPVLYCFVSETTHRDLARLRGACLAFLTCSRTGRAREAYPLGAPEASGKSGAQGEEPELLTKLHPAFQTPNSPGSGGFPTGRLA [L200D]: the cAMP reporter score is -0.422 in data set [1] (pH 5.5); -0.235 in data set [1] (pH 6); -1.87 in data set [1] (pH 6.5, modulator: ogerin). The surface expression score in data set [2] is -1.05.

For the variant MGNITADNSSMSCTIDHTIHQTLAPVVYVTVLVVGFPANCLSLYFGYLQIKARNELGVYLCNLTVADLFYICSLPFWLQYVLQHDNWSHGDLSCQVCGILLYENIYISVGFLCCISVDRYLAVAHPFRFHQFRTLKAAVGVSVVIWAKELLTSIYFLMHEEVIEDENQHRVCFEHYPIQAWQRAINYYRFLVGFLFPICALLASYQGILRAVRRSHGTQKSRKDQIQRLVLSTVVIFLACFLPYHVLLLVRSVWEASCDFAKGVFNAYHFSLLLTSFNCVADPVLYCFVSETTHRDLARLRGACLAFLTCSRTGRAREAYPLGAPEASGKSGAQGEEPELLTKLHPAFQTPNSPGSGGFPTGRLA [L200A], the cAMP reporter score was 0.012 in data set [1] (pH 5.5); 0.214 in data set [1] (pH 6, modulator: ogerin); -2.21 in data set [1] (pH 6.5, modulator: ogerin). Further, the surface expression score in data set [2] is -0.371.

For the variant MGNITADNSSMSCTIDHTIHQTLAPVVYVTVLVVGFPANCLSLYFGYLQIKARNELGVYLCNLTVADLFYICSLPFWLQYVLQHDNWSHGDLSCQVCGILLYENIYISVGFLCCISVDRYLAVAHPFRFHQFRTLKAAVGVSVVIWAKELLTSIYFLMHEEVIEDENQHRVCFEHYPIQAWQRAINYYRFLVGFLFPICELLASYQGILRAVRRSHGTQKSRKDQIQRLVLSTVVIFLACFLPYHVLLLVRSVWEASCDFAKGVFNAYHFSLLLTSFNCVADPVLYCFVSETTHRDLARLRGACLAFLTCSRTGRAREAYPLGAPEASGKSGAQGEEPELLTKLHPAFQTPNSPGSGGFPTGRLA [L200E], the cAMP reporter score was -0.628 in data set [1] (pH 5.5) and -1.66 in data set [1] (pH 6.5, modulator: ogerin).

Regarding MGNITADNSSMSCTIDHTIHQTLAPVVYVTVLVVGFPANCLSLYFGYLQIKARNELGVYLCNLTVADLFYICSLPFWLQYVLQHDNWSHGDLSCQVCGILLYENIYISVGFLCCISVDRYLAVAHPFRFHQFRTLKAAVGVSVVIWAKELLTSIYFLMHEEVIEDENQHRVCFEHYPIQAWQRAINYYRFLVGFLFPICFLLASYQGILRAVRRSHGTQKSRKDQIQRLVLSTVVIFLACFLPYHVLLLVRSVWEASCDFAKGVFNAYHFSLLLTSFNCVADPVLYCFVSETTHRDLARLRGACLAFLTCSRTGRAREAYPLGAPEASGKSGAQGEEPELLTKLHPAFQTPNSPGSGGFPTGRLA [L200F], the cAMP reporter score in data set [1] (pH 5.5) is 0.799; in data set [1] (pH 6, modulator: ogerin) it was 0.031; in data set [1] (pH 6.5, modulator: ogerin) it was -0.223. In data set [2], the surface expression score was -0.009.

Take MGNITADNSSMSCTIDHTIHQTLAPVVYVTVLVVGFPANCLSLYFGYLQIKARNELGVYLCNLTVADLFYICSLPFWLQYVLQHDNWSHGDLSCQVCGILLYENIYISVGFLCCISVDRYLAVAHPFRFHQFRTLKAAVGVSVVIWAKELLTSIYFLMHEEVIEDENQHRVCFEHYPIQAWQRAINYYRFLVGFLFPICGLLASYQGILRAVRRSHGTQKSRKDQIQRLVLSTVVIFLACFLPYHVLLLVRSVWEASCDFAKGVFNAYHFSLLLTSFNCVADPVLYCFVSETTHRDLARLRGACLAFLTCSRTGRAREAYPLGAPEASGKSGAQGEEPELLTKLHPAFQTPNSPGSGGFPTGRLA [L200G]: the cAMP reporter score in data set [1] (pH 5.5) is 0.024; in data set [1] (pH 6), -1.07; in data set [1] (pH 6, modulator: ogerin), -0.888; in data set [1] (pH 6.5, modulator: ogerin) it was -1.01. The surface expression score in data set [2] is -1.66.

The values are drawn from the GPR68 mutational scans of Howard et al. (2025).
